This is an account of results in paper PMC6919601, “Identification of Plasmodium dipeptidyl aminopeptidase allosteric inhibitors by high throughput screening” (PLoS ONE, 2019).

In all, about 110,000 compounds went through this assay and about 230 (0.21%) showed an effect of 50% or more. This is one part of the list.
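Further: 30 min substrate incubation versus DMSO and 10 µM JCP410 controls.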

The target in this assay is DPAP1 (Plasmodium falciparum, UniProt Q8IIJ9). Briefly: primary screen, percent inhibition; read by cleavage of a fluorogenic dipeptide substrate; higher = more effect of the substance. More on the design: species or system P. falciparum D10 trophozoite lysates; single well.
Sequence of DPAP1 (Q8IIJ9 whole entry, looked up): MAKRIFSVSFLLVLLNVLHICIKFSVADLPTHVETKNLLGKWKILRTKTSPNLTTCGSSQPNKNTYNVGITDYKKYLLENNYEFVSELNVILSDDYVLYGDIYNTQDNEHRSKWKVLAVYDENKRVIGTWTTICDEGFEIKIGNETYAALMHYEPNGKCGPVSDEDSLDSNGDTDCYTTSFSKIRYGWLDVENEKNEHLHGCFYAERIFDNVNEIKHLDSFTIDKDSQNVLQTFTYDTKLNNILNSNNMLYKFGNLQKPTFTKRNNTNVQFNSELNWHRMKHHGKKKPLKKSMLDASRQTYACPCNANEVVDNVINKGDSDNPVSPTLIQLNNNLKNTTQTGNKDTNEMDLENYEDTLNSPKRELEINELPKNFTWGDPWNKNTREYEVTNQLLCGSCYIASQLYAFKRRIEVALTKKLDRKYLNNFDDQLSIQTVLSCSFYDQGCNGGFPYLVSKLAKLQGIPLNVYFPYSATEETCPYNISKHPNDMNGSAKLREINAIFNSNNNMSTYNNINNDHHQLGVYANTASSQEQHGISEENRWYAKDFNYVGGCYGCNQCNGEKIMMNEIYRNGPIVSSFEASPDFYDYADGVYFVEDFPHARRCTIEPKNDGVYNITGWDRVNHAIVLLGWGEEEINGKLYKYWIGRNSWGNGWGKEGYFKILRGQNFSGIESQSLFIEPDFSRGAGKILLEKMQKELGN
As to `Clc1ccc(CN2CCN(c3cccc(Cl)c3)CC2)cc1`, the “% Inhibition @ 10 uM” value worked out at 1.63%.

`CCCN1C/C(=C\c2ccccc2)C(=O)/C(=C/c2ccccc2)C1`: the “% Inhibition @ 10 uM” value came out at 4.54%.

Turning to `CS(=O)(=O)N(CC(=O)NC1CC2CCC1C2)c1ccc(Cl)c(Cl)c1` (centres unmarked), the “% Inhibition @ 10 uM” value stood at 3.35%.

Consider `CCCOc1ccc(C2NC(=O)NC(C)=C2C(=O)OCc2ccccc2)cc1` (centres unmarked), for which the “% Inhibition @ 10 uM” value came to 29.2%.

`Cc1ccc(S(=O)(=O)c2cc3ccccc3oc2=O)cc1`: the “% Inhibition @ 10 uM” value is recorded as 2.12%.

In the case of `CCOc1ccccc1-n1nnc(-c2nsc(NC(=O)c3ccc(Br)cc3)n2)c1C`, the “% Inhibition @ 10 uM” value is recorded as -2.28%.

With `COc1ccc(S(=O)(=O)N(CC(=O)Nc2cc(C)ccc2C)c2ccccc2)cc1`, the “% Inhibition @ 10 uM” value was determined as 1.52%.

As for `CCOc1ccc(N2C(=O)c3cccc4c(C(=O)c5ccccc5)ccc(c34)C2=O)cc1`, the “% Inhibition @ 10 uM” value is on record as -0.0372%.

`Cc1cccc2c1N(C)C(=O)/C2=C1\SC(Nc2ccccc2Cl)=NC1=O`: the “% Inhibition @ 10 uM” value is 1.7%.

In the case of `CCC1CCCCN1C1N=CNc2sc3c(c21)CCCC3` (centres unmarked), the “% Inhibition @ 10 uM” value stood at 1.69%.

As to `Cc1ccc2oc(=O)c3cnn(CC(=O)N(CCN(C)C)Cc4ccco4)c3c2c1`, the “% Inhibition @ 10 uM” value is -1.7%.

Regarding `N#Cc1nc(/C=C/c2ccc(F)cc2)oc1NCc1ccc2c(c1)OCO2`, the “% Inhibition @ 10 uM” value is listed as -4.39%.

In the case of `Cc1cc(NC(=O)/C=C/c2ccc(C)o2)no1`, the “% Inhibition @ 10 uM” value came out at 0.64%.

As for `CCC(C)NC(=O)c1ccccc1NC(=O)CN(c1ccc(C)cc1C)S(C)(=O)=O` (centres unmarked), the “% Inhibition @ 10 uM” value is given as -1.35%.

With `Cc1ccnc(NC(=O)COc2cc(C)ccc2C(C)C)c1`, the “% Inhibition @ 10 uM” value is 17%.

Take `COc1ccc(C(=O)Nc2nnc(S(=O)(=O)N(C)Cc3ccccc3)s2)cc1`: the “% Inhibition @ 10 uM” value worked out at 1.1%.

Turning to `CN1CCN(c2nc3c(c(=O)n(C)c(=O)n3C)n2Cc2ccc(Cl)cc2Cl)CC1`, the “% Inhibition @ 10 uM” value is reported as -0.48%.

Turning to `Cc1cc(-c2ccc(C)c(S(=O)(=O)NCc3ccccc3Cl)c2)on1`, the “% Inhibition @ 10 uM” value is listed as -6.07%.

On to `O=C(CCc1ccccc1)Nc1nc(-c2ccccc2)cs1`, for which the “% Inhibition @ 10 uM” value is -3.72%.

Consider `CCc1ccc(C=C(C(=O)O)C(=O)O)s1`, for which the “% Inhibition @ 10 uM” value is reported as 1.64%.

With `Cc1cccc(CS(=O)(=O)Cc2ccc(C(=O)NCCCN(C)C3CCCCC3)o2)c1`, the “% Inhibition @ 10 uM” value is -0.971%.

As to `COc1ccc(CCNC(=O)c2ccc(C/N=c3/c(N4CCOCC4)c(O)c3=O)cc2)cc1OC`, the “% Inhibition @ 10 uM” value stood at 1.47%.

As to `O=C(NCC1CCCO1)c1ccc(NC(=O)c2cccc(Cl)c2)cc1` (centres unmarked), the “% Inhibition @ 10 uM” value is reported as -3.43%.

Take `CCCCCNC(=O)c1ccc(OC)cc1`: the “% Inhibition @ 10 uM” value is -5.44%.

For `CCc1c(C)sc(NC(=O)c2ccccc2C)c1C#N`, the “% Inhibition @ 10 uM” value is -4.61%.

In the case of `OCCN(Cc1ccccc1)C1CCC(c2ccccc2)CC1` (centres unmarked), the “% Inhibition @ 10 uM” value was determined as 3.19%.

Take `COc1ccc(C2C(C#N)=C(N)Oc3cc(C)oc(=O)c32)c(OC)c1OC` (centres unmarked): the “% Inhibition @ 10 uM” value is -0.0372%.

Regarding `Cc1ccc2ncc(S(=O)(=O)c3ccc(C(C)(C)C)cc3)c(O)c2c1`, the “% Inhibition @ 10 uM” value is reported as -5.25%.

For the compound `Cc1ccc(-n2nnc(-c3nc(-c4ccc(Cl)cc4)no3)c2N)c(C)c1`, the “% Inhibition @ 10 uM” value is given as 3.98%.

As to `CC1CCCN(CCCNc2ncnc3onc(-c4ccc(F)cc4)c23)C1` (centres unmarked), the “% Inhibition @ 10 uM” value worked out at 2.42%.

Turning to `COc1ccc(S(=O)(=O)Nc2ccc(C(=O)c3ccccc3)cc2)cc1`, the “% Inhibition @ 10 uM” value is recorded as -2.09%.

Take `O=C(NCc1ccccn1)c1cc(S(=O)(=O)N2CCCCC2)c[nH]1`: the “% Inhibition @ 10 uM” value stood at 0.589%.

Regarding `Cc1ccc(C(=O)N2CCN(c3ccccc3)CC2)cc1[N+](=O)[O-]`, the “% Inhibition @ 10 uM” value was -4.3%.

`Cn1cccc1Cc1nnc(SCC(N)=O)n1CCc1ccccc1`: the “% Inhibition @ 10 uM” value is -0.495%.

As to `CCCCC(=O)NC(c1ccco1)c1ccc2cccnc2c1O` (centres unmarked), the “% Inhibition @ 10 uM” value was -6.93%.

Consider `Cc1sc(NC(=O)c2ccc3c(c2)OCO3)c(C#N)c1C`, for which the “% Inhibition @ 10 uM” value came out at 24.3%.

For `CCc1ccc(NC(=O)c2cccc(C(=O)Nc3ccc(CC)cc3)c2)cc1`, the “% Inhibition @ 10 uM” value is on record as -4.4%.

For the compound `O=C(O)C1CCCN(c2ncccn2)C1` (centres unmarked), the “% Inhibition @ 10 uM” value is given as -4.91%.

Consider `O=C(NCc1ccc(Cl)cc1)c1ccc(C(=O)NCc2ccc(Cl)cc2)nc1`, for which the “% Inhibition @ 10 uM” value is 0.389%.

In the case of `CCN(CC)C(=O)C1CCCN(Cc2c(F)cccc2F)C1` (centres unmarked), the “% Inhibition @ 10 uM” value is -1.75%.

As to `Cc1ccc(C)c(OCC(=O)N2CCCC2)c1`, the “% Inhibition @ 10 uM” value is listed as -1.84%.

Consider `CCN1C(=O)N/C(=C/c2c(C)n(Cc3ccc(Cl)cc3)c3ccccc23)C1=O`, for which the “% Inhibition @ 10 uM” value was -5%.

On to `Cc1nn(Cc2cccc(C(=O)Nc3nc(-c4ccccc4)cs3)c2)c(C)c1Cl`, for which the “% Inhibition @ 10 uM” value was -5%.

Regarding `CCNc1oc(COc2cccc(C)c2)nc1C#N`, the “% Inhibition @ 10 uM” value is listed as -2.47%.

With `Cc1ccc(C(=O)Nc2cc(Cl)ccc2C)cc1`, the “% Inhibition @ 10 uM” value was -8.76%.

With `O=C(CSc1nc(-c2ccccc2)cc(C(F)(F)F)n1)Nc1ccccn1`, the “% Inhibition @ 10 uM” value came to 4.42%.

Regarding `N#Cc1c(S)nc(N2CCOCC2)c2c1CCCC2`, the “% Inhibition @ 10 uM” value came out at 1.8%.

For the compound `Cc1ccc(C(=O)C2=C(O)C(=O)N(CCCn3ccnc3)C2c2ccco2)cc1` (centres unmarked), the “% Inhibition @ 10 uM” value turned out to be 1.88%.

With `CCCOc1ccc2c(=O)c(Oc3ccccc3F)c(C)oc2c1`, the “% Inhibition @ 10 uM” value was -1.37%.

`OCCNCc1cc(Br)ccc1OCc1ccccc1Cl`: the “% Inhibition @ 10 uM” value is recorded as -3.09%.

For `Fc1ccccc1N1CCN(Cc2c[nH]c3ccccc23)CC1`, the “% Inhibition @ 10 uM” value stood at 12.3%.

For the compound `O=C(c1cccs1)N(C1CCCCC1)C1CCCCC1`, the “% Inhibition @ 10 uM” value worked out at 2.6%.

For the compound `CC(c1ccc(O)cc1)N1C(=O)c2ccccc2C1=O` (centres unmarked), the “% Inhibition @ 10 uM” value is on record as -0.403%.

For the compound `O=C(c1ccccc1)N1CC(COc2ccccc2)OC(c2ccoc2)O1` (centres unmarked), the “% Inhibition @ 10 uM” value is -4%.

`Cc1nn(-c2ccccc2)c(Cl)c1/C=N/n1c(S)nnc1-c1ccccc1`: the “% Inhibition @ 10 uM” value stood at 2.56%.

For the compound `O=S(=O)(Nc1ccccc1)c1ccc(F)cc1`, the “% Inhibition @ 10 uM” value was -1.22%.

Turning to `CC(C)(C)NC(=O)CN(Cc1ccc(F)cc1)S(=O)(=O)c1ccccc1`, the “% Inhibition @ 10 uM” value is recorded as -1.17%.

`CC(C)CNc1ncnc2c1cnn2C`: the “% Inhibition @ 10 uM” value is recorded as -1.1%.

For `COCCCNc1nc2c(c(=O)n(C)c(=O)n2C)n1C`, the “% Inhibition @ 10 uM” value is listed as -7.08%.

For `CS(=O)(=O)c1ccc2nc(NC(=O)c3ccc(Cn4cc(Br)cn4)o3)sc2c1`, the “% Inhibition @ 10 uM” value is given as 4.39%.

On to `CC(C)(C)c1ccc(OCc2nn3c(-c4ccccc4)nnc3s2)cc1`, for which the “% Inhibition @ 10 uM” value was -4.02%.

For the compound `Cc1ccnc(-n2c(C)cc(/C=C3\NC(=O)N(Cc4ccc(Cl)cc4)C3=O)c2C)c1`, the “% Inhibition @ 10 uM” value is listed as -4.93%.

With `CCCCCOc1ccc(C2SCC(=O)Nc3c2c(O)nn3C2CCOC(C)(C)C2)cc1` (centres unmarked), the “% Inhibition @ 10 uM” value was determined as 4.54%.

On to `COc1ccc(-c2noc(-c3cccc(Br)c3)n2)cc1`, for which the “% Inhibition @ 10 uM” value is listed as -0.795%.

Regarding `CCN(CC)c1cc(-n2nc(C)cc2C)nc(-c2ccccc2)n1`, the “% Inhibition @ 10 uM” value is listed as 6.89%.
